Test results: patent US9126931B2 (priority 2009, dated 2015)

System: Human lymphoma cell line KARPAS-299
Assay: cells
Details: KARPAS-299, 96 h, read-out: Inhibitory activity on Karpas-299 cell growth IC50

**Q.** For CC1(C)c2cc(OCCNC(=O)C(F)(F)F)ccc2C(=O)c2c1[nH]c1cc(C#N)ccc21 [Compound A9-2, N-[2-(3-Cyano-6,6-dimethyl-11-oxo-6,11-dihydro-5H-benzo[b]carbazol-8-yloxy)-ethyl]-2,2,2-trifluoro-acetamide], which IC50 is on record?
**A.** 137 nM

**Q.** How did the IC50 turn out when O=C1c2ccc(OC[C@@H](O)[C@H](O)CO)cc2C2(CCCCC2)c2oc3ccccc3c21 [GT18-4, 8-((2R,3R)-2,3,4-trihydroxybutoxy)-11H-spiro[benzo[b]naphtho[2,3-d]furan-6,1′-cyclohexane]-11-one] was run?
**A.** 2010 nM

**Q.** For CC(C)S(=O)(=O)N1CCC(COc2ccc3c(c2)C(C)(C)c2[nH]c4cc(Br)ccc4c2C3=O)CC1 [Compound T14-6, 3-Bromo-6,6-dimethyl-8-[1-(propane-2-sulfonyl)-piperidin-4-ylmethoxy]-5,6-dihydro-benzo[b]carbazol-11-one], which IC50 is on record?
**A.** 1940 nM

**Q.** CCc1cc2c(cc1N1CCN(C3(C#N)CCCCC3)CC1)C(C)(C)c1[nH]c3cc(C#N)ccc3c1C2=O [Compound E9-9, 8-[4-(1-Cyano-cyclohexyl)-piperazin-1-yl]-9-ethyl-6,6-dimethyl-11-oxo-6,11-dihydro-5H-benzo[b]carbazole-3-carbonitrile] was tested. Which IC50 did it give?
**A.** 4 nM

**Q.** For CC1(C)c2cc(N3CCOCC3)c(OCCO)cc2C(=O)c2c1[nH]c1cc(C#N)ccc21 [Compound K10-7, 9-(2-Hydroxy-ethoxy)-6,6-dimethyl-8-morpholin-4-yl-11-oxo-6,11-dihydro-5H-benzo[b]carbazole-3-carbonitrile], which IC50 is on record?
**A.** 51.8 nM

**Q.** CC1(C)c2cc(OCCN3CCNC(=O)C3)ccc2C(=O)c2c1[nH]c1cc(C#N)ccc21 [Compound A8-17, 6,6-Dimethyl-11-oxo-8-[2-(3-oxo-piperazin-1-yl)-ethoxy]-6,11-dihydro-5H-benzo[b]carbazole-3-carbonitrile] was tested. Which IC50 did it give?
**A.** 127 nM

**Q.** With CCc1cc2c(cc1N1CCC(NCC3CCCCC3)CC1)C(C)(C)c1[nH]c3cc(C#N)ccc3c1C2=O [PR11-19, 8-[4-(Cyclohexylmethyl-amino)-piperidine-1-yl]-9-ethyl-6,6-dimethyl-11-oxo-6,11-dihydro-5H-benzo[b]carbazole-3-carbonitrile] as the compound, how does the IC50 read?
**A.** 34.6 nM

**Q.** CC#Cc1cc2c(cc1N1CCN(C3CCC3)CC1)C(C)(C)c1[nH]c3cc(C#N)ccc3c1C2=O [Compound F5-44, 8-(4-Cyclobutyl-piperazin-1-yl)-6,6-dimethyl-11-oxo-9-prop-1-ynyl-6,11-dihydro-5H-benzo[b]carbazole-3-carbonitrile] was tested. Which IC50 did it give?
**A.** 6 nM

**Q.** Which IC50 does the source give for CC1(COc2ccc3c(c2)C(C)(C)c2[nH]c4cc(C#N)ccc4c2C3=O)COC1 [Compound A7-10, 6,6-Dimethyl-8-(3-methyloxetan-3-ylmethoxy)-11-oxo-6,11-dihydro-5H-benzo[b]carbazole-3-carbonitrile] here?
**A.** 303 nM

**Q.** With CN(CCO)C(=O)c1ccc2c(c1)C(C)(C)c1[nH]c3cc(C#N)ccc3c1C2=O [Compound B3-26, 3-Cyano-6,6-dimethyl-11-oxo-6,11-dihydro-5H-benzo[b]carbazol-8-carboxylic acid (2-hydroxy-ethyl)-methyl-amide] as the compound, how does the IC50 read?
**A.** 1360 nM

**Q.** How did the IC50 turn out when CC#Cc1cc2c(cc1N1CCN(C3COC3)CC1)C(C)(C)c1[nH]c3cc(C#N)ccc3c1C2=O [Compound F5-22, 6,6-Dimethyl-8-(4-oxetan-3-yl-piperazin-1-yl)-11-oxo-9-prop-1-ynyl-6,11-dihydro-5H-benzo[b]carbazole-3-carbonitrile] was run?
**A.** 6.6 nM

**Q.** Which IC50 does the source give for CCC(C)NCCOc1ccc2c(c1)C(C)(C)c1[nH]c3cc(C#N)ccc3c1C2=O (stereo not drawn) [Compound A8-11, 8-(2-Sec-butylamino-ethoxy)-6,6-dimethyl-11-oxo-6,11-dihydro-5H-benzo[b]carbazole-3-carbonitrile] here?
**A.** 67.7 nM

**Q.** With CCN(CC)CC#Cc1cc2c(cc1N1CCN(C3COC3)CC1)C(C)(C)c1[nH]c3cc(C#N)ccc3c1C2=O [Compound F5-29, 9-(3-Diethylamino-prop-1-ynyl)-6,6-dimethyl-8-(4-oxetan-3-yl-piperazin-1-yl)-11-oxo-6,11-dihydro-5H-benzo[b]carbazole-3-carbonitrile] as the compound, how does the IC50 read?
**A.** 7.6 nM

**Q.** How did the IC50 turn out when CN1CCC(Oc2cc3c(cc2NS(=O)(=O)N(C)C)C(=O)c2c([nH]c4cc(C#N)ccc24)C3(C)C)CC1 [Compound D3-2, 3-Cyano-6,6-dimethyl-11-oxo-8-(1-methylpiperidin-4-yloxy)-6,11-dihydro-5H-benzo[b]carbazole-9-sulfonic acid dimethylamide] was run?
**A.** 970 nM

**Q.** For CC(C)Oc1cc2c(cc1C1=CCN(C3COC3)CC1)C(=O)c1c([nH]c3cc(C#N)ccc13)C2(C)C [Compound E5-6, 8-Isopropoxy-6,6-dimethyl-9-(1-oxetan-3-yl-1,2,3,6-tetrahydro-pyridin-4-yl)-11-oxo-6,11-dihydro-5H-benzo[b]carbazole-3-carbonitrile], which IC50 is on record?
**A.** 52.7 nM

**Q.** With C#Cc1cc2c(cc1N1CCC(N3CCCC3)CC1)C(C)(C)c1[nH]c3cc(C#N)ccc3c1C2=O [Compound F5-4, 9-Ethynyl-6,6-dimethyl-11-oxo-8-(4-pyrrolidin-1-yl-piperidin-1-yl)-6,11-dihydro-5H-benzo[b]carbazole-3-carbonitrile] as the compound, how does the IC50 read?
**A.** 1.8 nM

**Q.** With CC(C)N1CCC(c2ccc3c(c2)C(C)(C)c2[nH]c4cc(C#N)ccc4c2C3=O)CC1 [Compound B4-7, 8-(1-Isopropyl-piperidin-4-yl)-6,6-dimethyl-11-oxo-6,11-dihydro-5H-benzo[b]carbazole-3-carbonitrile] as the compound, how does the IC50 read?
**A.** 10.5 nM

**Q.** For CCN(CC)CCOc1ccc2c(c1)C(C)(C)c1[nH]c3cc(NC(=O)OCCOC)ccc3c1C2=O [GT5-7, [8-(2-Diethylamino-ethoxy)-6,6-dimethyl-11-oxo-6,11-dihydro-5H-benzo[b]carbazol-3-yl]-carbamic acid 2-methoxy-ethyl ester], which IC50 is on record?
**A.** 17100 nM

**Q.** For COc1ccc(C(C)(C)C)cc1NC(=O)Oc1ccc2c3c(oc2c1)C(C)(C)c1cc(OC[C@H](O)CO)ccc1C3=O [GT13-32, (5-tert-Butyl-2-methoxy-phenyl)-carbamic acid 8-((R)-2,3-dihydroxy-propoxy)-6,6-dimethyl-11-oxo-6,11-dihydro-benzo[b]naphtho[2,3-d]furan-3-yl ester], which IC50 is on record?
**A.** 2500 nM

**Q.** Which IC50 does the source give for CC1(C)c2ccc(OCCCCCC(=O)O)cc2C(=O)c2c1[nH]c1cc(C#N)ccc21 [Compound J7-14, 6-(3-Cyano-6,6-dimethyl-11-oxo-6,11-dihydro-5H-benzo[b]carbazol-9-yloxy)-hexanoic acid] here?
**A.** 557 nM

**Q.** For CC1(C)c2[nH]c3cc(C#N)ccc3c2C(=O)c2cnc(N3CCC(N4CCOCC4)CC3)c(F)c21 [AZ7-24, 4-Fluoro-5,5-dimethyl-3-(4-morpholin-4-yl-piperidine-1-yl)-11-oxo-6,11-dihydro-5H-pyrido[4,3-b]carbazole-8-carbonitrile], which IC50 is on record?
**A.** 54 nM

**Q.** For COCC#Cc1cc2c(cc1N1CCOCC1)C(C)(C)c1[nH]c3cc(C#N)ccc3c1C2=O [Compound F5-9, 9-(3-Methoxy-prop-1-ynyl)-6,6-dimethyl-8-morpholin-4-yl-11-oxo-6,11-dihydro-5H-benzo[b]carbazole-3-carbonitrile], which IC50 is on record?
**A.** 4.3 nM

**Q.** Which IC50 does the source give for Cn1cc(-c2cc3c(cc2N2CCOCC2)C(C)(C)c2[nH]c4cc(C#N)ccc4c2C3=O)cn1 [Compound F5-11, 6,6-Dimethyl-9-(1-methyl-1H-pyrazol-4-yl)-8-morpholin-4-yl-11-oxo-6,11-dihydro-5H-benzo[b]carbazole-3-carbonitrile] here?
**A.** 6.1 nM

**Q.** For COc1c(C#N)ccc2c3c([nH]c12)C(C)(C)c1cc(OC[C@H](O)CO)ccc1C3=O [Compound U8-4-3, 8-((R)-2,3-Dihydroxy-propoxy)-4-methoxy-6,6-dimethyl-11-oxo-6,11-dihydro-5H-benzo[b]carbazole-3-carbonitrile], which IC50 is on record?
**A.** 1100 nM

**Q.** For CCN(CC)CCOc1ccc2c(c1)C(C)(C)c1[nH]c3cc(NC(=O)C(C)(C)C)ccc3c1C2=O [GT5-6, N-[8-(2-Diethylamino-ethoxy)-6,6-dimethyl-11-oxo-6,11-dihydro-5H-benzo[b]carbazol-3-yl]-2,2-dimethyl-propionamide], which IC50 is on record?
**A.** 8230 nM

**Q.** With CC(C)Oc1cc2c(cc1OC1CCCN(C3CCC3)C1)C(C)(C)c1[nH]c3cc(C#N)ccc3c1C2=O (stereo not drawn) [Compound L10-7, 8-(1-Cyclobutyl-piperidin-3-yloxy)-9-isopropoxy-6,6-dimethyl-11-oxo-6,11-dihydro-5H-benzo[b]carbazole-3-carbonitrile] as the compound, how does the IC50 read?
**A.** 37 nM

**Q.** Which IC50 does the source give for CC1(C)c2cc(C(=O)NCCNS(C)(=O)=O)ccc2C(=O)c2c1[nH]c1cc(C#N)ccc21 [Compound B3-25-3, 3-Cyano-6,6-dimethyl-11-oxo-6,11-dihydro-5H-benzo[b]carbazol-8-carboxylic acid (2-methanesulfonylamino-ethyl)-amide] here?
**A.** 730 nM

**Q.** How did the IC50 turn out when CC1(C)c2cc(N3CCN(C4CC4)CC3)c(-c3cccnc3)cc2C(=O)c2c1[nH]c1cc(C#N)ccc21 [Compound F5-40, 8-(4-Cyclopropyl-piperazin-1-yl)-6,6-dimethyl-11-oxo-9-pyridin-3-yl-6,11-dihydro-5H-benzo[b]carbazole-3-carbonitrile] was run?
**A.** 25.6 nM

**Q.** Which IC50 does the source give for CCN(CC)CCOc1ccc2c(n1)C(C)(C)c1[nH]c3cc(C#N)ccc3c1C2=O [EZ9-3, 2-(2-Diethylamino-ethoxy)-11,11-dimethyl-5-oxo-10,11-dihydro-5H-pyrido[2,3-b]carbazole-8-carbonitrile] here?
**A.** 56.9 nM

**Q.** Which IC50 does the source give for CC1(C)c2cc(OCCN3CCC(C(N)=O)CC3)ccc2C(=O)c2c1[nH]c1cc(C#N)ccc21 [Compound A8-16, 1-[2-(3-Cyano-6,6-dimethyl-11-oxo-6,11-dihydro-5H-benzo[b]carbazol-8-yloxy)-ethyl]-piperidine-4-carboxylic acid amide] here?
**A.** 34.5 nM

**Q.** With CCCC#Cc1cc2c(cc1N1CCOCC1)C(C)(C)c1[nH]c3cc(C#N)ccc3c1C2=O [Compound F5-8, 6,6-Dimethyl-8-morpholin-4-yl-11-oxo-9-pent-1-ynyl-6,11-dihydro-5H-benzo[b]carbazole-3-carbonitrile] as the compound, how does the IC50 read?
**A.** 29.7 nM

**Q.** For CC1(C)c2cc(OC3CCNCC3)ccc2C(=O)c2c1[nH]c1ccc(N)cc21 [Compound P5, 2-Amino-6,6-dimethyl-8-(piperidin-4-yloxy)-5,6-dihydro-benzo[b]carbazol-11-one], which IC50 is on record?
**A.** 27800 nM

**Q.** Which IC50 does the source give for CCN(CC)CCOc1ccc2c(c1)C(C)(C)c1[nH]c3cc(N(C)C(=O)c4cccc(C(F)(F)F)c4)ccc3c1C2=O [GT5-17, N-[8-(2-Diethylamino-ethoxy)-6,6-dimethyl-11-oxo-6,11-dihydro-5H-benzo[b]carbazol-3-yl]-N methyl-3-trifluoromethyl-benzamide] here?
**A.** 2360 nM
